PubChem BioAssay AID624202 (National Center for Advancing Translational Sciences (NCATS), 2012)
The campaign covered roughly 380,000 compounds. About 4,000 (1.1%) were called active. Inconclusive results, whose numbers are uncertain, are shown with a selection of clear calls. Calls follow the shape of the dose curve; as a rule, active = well fitted activation curve with a large enough effect; inconclusive = small, poorly fitted or top-dose-only effect; inactive = no such curve, though single readings can be large or run the other way. Potencies beside an inconclusive call are fits to weak or partial responses and may not hold up.

Assay: qHTS Assay to Identify Small Molecule Activators of BRCA1 Expression; also: nearly all actives have a fitted effect of over 80% in size
Conditions: MCF7-BRCA1-FFLuc reporter, luminescence, 48 h; activation: at 46.1 µM (top of the series), scaled: vehicle 0%, 10 µM genistein 100% unless noted
How it was run: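 MCF7-BRCA1-FFLuc, 2000 cells/well; 2 h attach, 37 °C/5% CO2; compound 48 h; luciferase substrate 15 min; luminescence end-point. Norm. to genistein 10 microM max activation and DMSO; concentration-response curves fitted.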
Potency is read from the fitted curve at half-maximal effect; tags tell the direction and shape of the fitted curve.

Question: Which Potency does the source give for CCn1c(CNC(=O)c2cccc(C)c2)nc2ccccc21 here?
Answer: Its Potency is “inactive”.

Question: With COCC1CCCN(C(=O)c2cc(COc3ccc4ncccc4c3)on2)C1 (stereo unspecified) as the molecule, how does the Potency read?
Answer: Its Potency is “inactive”.

Question: With NC(=O)C1CCN(c2nc(-c3ccccc3C(F)(F)F)cs2)CC1 as the molecule, how does the Potency read?
Answer: The Potency was inconclusive: 2.82 µM [activator, full curve, poor fit].

Question: Which Potency does the source give for Cc1cnc(NC(=O)CCc2ccccc2)s1 here?
Answer: The Potency was inconclusive: 31.6 µM [activator, single point].

Question: With O=C(/C=C/c1ccc2c(c1)OCO2)NCc1ccco1 as the molecule, how does the Potency read?
Answer: The Potency was inconclusive: 20 µM [activator, partial curve, poor fit].

Question: With COc1ccc(NC(=O)c2cccs2)c([N+](=O)[O-])c1 as the molecule, how does the Potency read?
Answer: The Potency was active: 5.62 µM.

Question: With COc1cc(/C=N/NC(=O)c2cccc(S(=O)(=O)N3CCOCC3)c2)cc(OC)c1O as the molecule, how does the Potency read?
Answer: Its Potency is “inactive”.

Question: For O=C(NCc1ccccc1)NC1CCCCC1, which Potency is on record?
Answer: The Potency was inconclusive: 10 µM [activator, partial curve, poor fit].

Question: With c1ccc(-c2csc(CN3CCCCC3)n2)cc1 as the molecule, how does the Potency read?
Answer: The Potency was inconclusive: 1.58 µM [activator, full curve, poor fit].

Question: With Nn1c(-c2ccccc2Cl)nnc1-c1ccccc1Cl as the molecule, how does the Potency read?
Answer: Its Potency is inconclusive: 35.5 µM [activator, single point].

Question: Which Potency does the source give for O=C(Nc1nc2ccccc2n1CCN1CCOCC1)c1ccc(Cl)cc1 here?
Answer: The Potency was “inactive”.

Question: With O=C1CN(C(=O)OCc2ccccc2)c2ccccc2N1 as the molecule, how does the Potency read?
Answer: Its Potency is inconclusive: 35.5 µM [activator, single point].

Question: With O=C(NC1CCCCC1)c1ccc(-c2ccc(Cl)cc2)o1 as the molecule, how does the Potency read?
Answer: Its Potency is inconclusive: 1.58 µM [activator, partial curve, poor fit].

Question: For C/C(=N\NC(=O)c1ccc(Cl)cc1)c1cccnc1, which Potency is on record?
Answer: The Potency was inconclusive: 10 µM [activator, partial curve, poor fit].

Question: Which Potency does the source give for CCn1c(C)c(C)c2cc(C(=O)N3CCc4ccccc4C3)ccc21 here?
Answer: Its Potency is “inactive”.

Question: Which Potency does the source give for CN(C(=O)c1ccc2c(=O)n3c(nc2c1)CCCCC3)c1ccccc1F here?
Answer: Its Potency is “inactive”.

Question: With CN1CCN(C(=S)c2ccc(-c3cccc([N+](=O)[O-])c3)o2)CC1 as the molecule, how does the Potency read?
Answer: Its Potency is inconclusive: 1.78 µM [activator, full curve, poor fit].

Question: Which Potency does the source give for CCc1ccc(/C=N\NC(=O)c2ccc(Br)o2)s1 here?
Answer: Its Potency is inconclusive: 2.51 µM [activator, full curve, poor fit].

Question: For O=C(O)c1ccc(NC2=C/C(=N/S(=O)(=O)c3ccccc3)c3ccccc3C2=O)cc1, which Potency is on record?
Answer: Its Potency is “inactive”.

Question: For O=C(NCCc1ccccc1)C(=O)NCC1CCCO1 (stereo unspecified), which Potency is on record?
Answer: The Potency was active: 12.6 µM.

Question: Which Potency does the source give for CN(C)S(=O)(=O)c1ccc2nc(NC(=O)c3cccs3)sc2c1 here?
Answer: Its Potency is inconclusive: 1.26 µM [activator, full curve, poor fit].
